# Measured values reported in the supplement of paper PMC3334620.
# In all, about 33,000 sequences were measured (“E-score (-0.5 to 0.5)”: median about -0.016, highest 2% from about 0.31 on). The list shows a part of the results.
# Target: Cst6 (UniProt P40535)
# Experiment: PBM E-score (8-mer binding enrichment) (E-score (-0.5 to 0.5)); higher = stronger / more preferred TF binding; most listed sequences are background and not binding sites
# Details: protein concentration: 200 nM; construct: GST-DNA-binding domain
# Method in brief: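 For each ungapped eight-base word taken together with its reverse complement, the Universal PBM Analysis Suite assigned an E-score. Binding data came from GST-tagged yeast transcription factors, applied at about 100-200 nM, on universal all-10-mer Agilent arrays made double-stranded by primer extension. Fluorescent anti-GST marked bound protein, and scans were normalised with masliner.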
row,Sequence,PBM E-score
1,CCCCGTTC,-0.0982
2,AACCGTAC,-0.141
3,ACGTTAAT,0.171
4,CACCGAAC,0.00131
5,GTAATCAC,0.225
6,AGCGCACA,-0.185
7,GATAAGCC,-0.329
8,CCGCTCCA,-0.152
9,ACCCACCG,-0.0181
10,GACCGGTC,-0.234
11,GTATGTAA,0.282
12,GACCTTCC,-0.294
13,CACAATTA,0.211
14,ACACGGAC,-0.00107
15,CCCGTAAA,0.0203
16,AGGCTCCA,-0.199
17,CATATTAG,0.189
18,ACATGGGA,-0.0499
19,GGCTTGTA,-0.121
20,ATTCCTGG,-0.0933
21,GCGGCCAA,0.0174
22,GAAGGGGA,-0.187

row,Sequence,PBM E-score
1,ATTACTAG,-0.0138
2,AAAAGGAT,0.07
3,GACGTCAC,0.495
4,ACCATAAC,0.0929
5,CCTCTGTC,-0.184
6,CACGTAAA,0.181
7,ACTTACAT,0.149
8,AGAAACAC,0.0274
9,CCCGCTAC,-0.101
10,AGATAGGA,-0.101
11,ACATCGAA,0.182
12,AGGAGTAG,0.0204
13,CAACAAGA,0.113
14,AGGACCAA,-0.0819
15,AACTCCAA,0.0552
16,CATAAAAG,0.145
17,CCACCTAC,0.0546
18,AGCGTGCC,-0.00767
19,ACTGGCTA,-0.108
20,CTCAGTAC,-0.0935
21,GAGTTCCA,-0.103
22,CGCCCCAA,0.0361

row,Sequence,PBM E-score
1,GCTGTCCC,-0.22
2,CGTTTCTC,-0.239
3,GCAGGCAC,-0.267
4,ACGACCGT,-0.238
5,AGGATCGC,-0.00903
6,CGAGTACA,-0.0177
7,ACCAACAC,0.0173
8,CCGTCCAA,-0.116
9,AGCGTTTG,-0.0379
10,GGGCGGGA,-0.0359
11,CGGAGTGC,-0.0178
12,ACAGGGGT,-0.331
13,AGCAGCAA,-0.0674
14,CCAACCAC,-0.0582
15,AACTCACA,0.119
16,TCGGGCCA,-0.233
17,ACTCTTTG,0.00634
18,ACTACCCT,-0.111
19,ACCCTTAA,-0.207
20,AGCTGCAC,-0.144
21,GACTCCAC,-0.271
22,CTAAGAAA,0.109

row,Sequence,PBM E-score
1,GCTTCTAA,-0.0534
2,CGCAACAA,0.135
3,CCCTTAAA,-0.111
4,ATTTCCAG,0.0306
5,CCCATATC,0.0133
6,CGAACGCA,0.261
7,GCGCCTCA,0.0635
8,ATCGCGGC,0.0883
9,CCATGCAG,-0.0955
10,ACATTTCT,0.0719
11,AGGGCAAC,-0.0629
12,CACTCAAG,-0.115
13,AACCGGCA,-0.277
14,AAAACAAC,0.0133
15,CAGGTTGA,-0.0445
16,CCTCCATC,-0.327
17,CACATAGG,-0.00938
18,AAAATAAG,0.139
19,ATTGCTTC,-0.043
20,AATCCATC,-0.0415
